Measurements published in ChEMBL document CHEMBL5308541, “MAIP: An Open-Source Tool to Enrich High-Throughput Screening Output and Identify Novel, Druglike Molecules with Antimalarial Activity” (ACS Med Chem Lett, 2023).
The whole screen tested about 150,000 compounds, of which about 540 (0.36%) showed an effect of 50% or more. The list shows a part of the results.

Each molecule was assayed on Plasmodium falciparum (assay: Primary screen in NF54 nanoGlo assay, in single point, at 2uM, 72h; a lower Z score goes with more inhibition). Conditions: timepoint 72 hour.
Format: functional, Erythrocyte

Compound | % Inhibition | Z score
CN1CCN(c2ncc(CNc3cnc4ccccc4c3)cn2)CC1 | -8% | 1.67
CC1CCC(C)N1CCN1CCN(C(=O)CCC2CCNCC2)CC1 (stereo not drawn) | -6% | 1.26
O=C(c1cc2ccc(OC(F)(F)F)cc2[nH]1)N1CCC(OC2CCOCC2)CC1 | -10% | 1.7
N#CCC1CCN(C(=O)c2cccc(Br)c2Cl)CC1 | -2% | 0.48
CCN1CCN(C2CCN(c3nc(N)nc(C4CC4)n3)CC2)C1=O | -1% | 0.22
O=C(NC1(c2cc(F)cc(F)c2)CC1)[C@H]1CC12CC2 | -7% | 1.03
CC(C)N1CCN(CCNC(=O)N2CCC(Oc3ccncc3)CC2)CC1 | 0% | -0.02
Fc1ccc(C2CCNCC2NCc2ccc3cn[nH]c3c2)cc1 (stereo not drawn) | -2% | 0.24
CC(C)(C)OC(=O)N1CCN(CCCNc2ccncc2C(N)=O)CC1 | 7% | -1.6
Cc1cc(NCc2cc(Cl)c3c(c2)OCCO3)nc(N)n1 | 3% | -0.53
C[C@@H](c1ccncc1)N1CCC(Nc2ncc(F)cn2)CC1 | -3% | 0.5
CCOC1CC(Nc2cc(-n3nc(C)cc3N)ncn2)C12CCCC2 (stereo not drawn) | -7% | 1.17
CC(C)(C)n1cc(-c2ccc3sc(CCC(=O)O)nc3c2)cn1 | -6% | 0.98
CCCn1ncc(-c2ccnc(NCc3coc(-c4ccccc4)n3)n2)c1C | -11% | 1.88
Cc1csc2ncnc(Nc3ccn(CCN4CCOCC4)n3)c12 | -5% | 1.01
NC1=Nc2nc(-c3ccccc3)nn2CC1 | 0% | 0.07
CC(C)CN1CCC(CNc2nncc(-c3cccc(Cl)c3)n2)CC1 | 7% | -1.21
CN(CCCc1cc(-c2ccc(F)cc2)n[nH]1)CC1CCNCC1 | 24% | -5.17
C[C@@H](c1ccc(F)cc1F)N1CCN(c2nc(N)c3cnn(C)c3n2)CC1 | -4% | 0.62
Cc1cc(C)n(Cc2cccc(-c3noc([C@H]4COC(=O)N4)n3)c2)n1 | -6% | 0.97
CN(c1cccc2ncccc12)S(=O)(=O)c1cc(Cl)ccc1OCC(N)=O | -8% | 1.23

Compound | % Inhibition | Z score
CC[C@@H]1C[C@H]1NS(=O)(=O)c1cnc2cccnn12 | 6% | -1.29
CN(C)c1ccccc1-c1ccc(F)c2[nH]ccc12 | 3% | -0.62
CN1CCC(OCCCNc2nccc3ccccc23)CC1 | 5% | -0.94
COc1cccc(Oc2ccc(NC(=O)c3cc(-c4ccccn4)[nH]n3)cn2)c1 | 14% | -3.06
CC(C)N1CCN(CCCN2CC[C@H](c3ccncc3)C2)CC1 | -9% | 1.62
NCCOCCOCCNCCN1CCN(CCOCCOCCN)CC1 | -9% | 1.32
NC(=O)C1CCN(CCCCNc2nccc(C(F)(F)F)n2)CC1 | -9% | 1.38
O=C1C[C@H](CNc2cc(N3CCC(O)CC3)ncn2)CN1C1CCCC1 | -2% | 0.39
Cc1cc(C)c2nc(N3CCN(C)CC3)cc(C)c2c1 | -1% | 0.2
c1ccc(-n2ncc3c(Nc4ccc5c(c4)OCO5)nc(NC4CCCCCC4)nc32)cc1 | -10% | 1.5
O=C(N[C@H](CO)Cc1c[nH]c2ccccc12)c1ccnc(OCC(F)F)c1 | -3% | 0.44
Nc1nc(NC2COCCC2Oc2ccccn2)c2c[nH]nc2n1 (stereo not drawn) | -12% | 2.05
Oc1cccc(Nc2cccc(C(F)(F)F)c2)c1 | -1% | 0.1
COC(=O)[C@@H](C)CNC(=O)Nc1cccnc1-c1cnn(C)c1 | -6% | 0.89
Nc1nnc(Nc2cccc(Cl)c2)s1 | -3% | 0.7
Cn1c(-c2ccccc2)c(C(=O)C(=O)Nc2ccc3c(c2)COc2ccccc2O3)c2ccccc21 | 6% | -1.05
CC(CNC1CC2(CCC2)Oc2ccccc21)CN1CCN(C)CC1 (stereo not drawn) | 3% | -0.45
Cc1c(C#N)c(NCc2cc(O[C@H]3CCNC3)ccn2)nc2ccccc12 | 0% | 0.02
C[C@H]1CCN(C(=O)Nc2cn(C)nc2-c2ccccc2)CC12CCC2 | -9% | 1.35
C[C@@H](CCC(=O)Nc1cccc(-c2c[nH]cn2)c1)N1CCN(C)CC1 | -6% | 0.98
O=c1cc(CN2CCN(C3CCCCC3)CC2)nc(N2CCCN(Cc3cccc(C(F)(F)F)c3)CC2)[nH]1 | 13% | -2.2

Compound | % Inhibition | Z score
CN(C)CCCN=C(N)NCC1CCC1 | -4% | 0.82
Fc1cccc([C@@H]2CCCN2c2cc(N3CCOCC3)ncn2)c1 | 13% | -2.21
COc1cccc(NC(=O)C[C@H]2COCCN2C(=O)Cc2ccncc2)c1 | 3% | -0.5
O=C(CN1CCC(CN2CCOCC2)CC1)NC[C@@H](c1ccccc1Cl)N1CCCC1 | -3% | 0.6
COc1cc(Nc2nc3ccccc3s2)ccc1NC(C)=O | -5% | 0.84
O=C(NC1CC1)[C@@H](OCc1nc2cccc(F)c2[nH]1)C1CCN(Cc2nc3c(F)cccc3[nH]2)CC1 | -9% | 1.51
CN1CCN(CCNC2CCN3CCCC3C2)C(c2ccccc2)C1 (stereo not drawn) | 29% | -5.14
COc1ccc(Nc2cc(NC[C@@H](CO)c3cccnc3)ncn2)c(OC)c1 | -6% | 0.87
CC(C)c1noc(-c2ccc(NC3CCN(Cc4ccncc4)CC3)nc2)n1 | -16% | 2.72
O=C(NCCN1CCOCC1)c1ccc(NC2CCC3CN(Cc4ccccc4)CC32)cc1 (stereo not drawn) | 9% | -1.97
c1nc(NCc2csc(N3CCCC3)n2)c2[nH]ccc2n1 | 3% | -0.67
Cc1ccc(S(=O)(=O)NCCNC(=O)CCc2ccc3[nH]ccc3c2)cc1 | -7% | 1.6
CCc1ccc([C@@H](O)CNC2CCN(CC(F)F)CC2)cc1 | 2% | -0.37
CCNC(=O)c1ccc(NC2CCN(C3CCCC3)CC2)nc1 | -13% | 2.21
CN(C[C@]1(O)CCN(Cc2ccccc2)C1)c1ncnc2[nH]ccc12 | -4% | 0.66
CCN(C)[C@@H](C)CCNC(=O)c1ccc(-c2ccccc2C(=O)NC)cc1 | 1% | -0.09
COC(=O)CC1(NC(=O)c2ccc(F)cc2Cl)CCN(C)CC1 | -11% | 1.89
Fc1ccccc1-c1n[nH]c2c1CN(Cc1cccc3ncccc13)CC2 | -1% | 0.18
Fc1ccc2ncnc(NC3CCN(C[C@H]4CCOC4)CC3)c2c1 | -10% | 2.15
COc1nc2ccccc2cc1-c1c(-c2ccccc2)ncn1CCc1c[nH]cn1 | 1% | -0.13
Cc1cc(CN=C(N)N2CCCCCC2)on1 | -5% | 1.04

Compound | % Inhibition | Z score
FC(F)(F)CCN1CCC(N[C@H]2CCN(c3ccccc3)C2)CC1 | -4% | 0.93
CC(C)CNc1nccc(Nc2ccc(O)c(C(=O)O)c2)n1 | -4% | 0.77
CCn1nc(C)c2c(C(=O)N[C@@H](C)c3ccc(N4CCCCC4)cc3)cc(C)nc21 | -7% | 1.14
CN(C)C(=O)c1ccc(-c2cc(NCc3ccncc3)nc3[nH]ccc23)o1 | -8% | 1.37
CN(C[C@H]1CCCN1c1cccnn1)c1ncnc2[nH]ccc12 | 8% | -1.72
CC1(C)O[C@H]2C[C@H](NCC(O)COc3ccc4cc[nH]c4c3)C[C@H]2O1 (stereo partly drawn) | 0% | 0.04
Cc1cccc(N2CCN(Cc3nc(-c4cccc(Oc5ccccc5)c4)oc3C)CC2)n1 | 0% | 0.08
NC(=O)C[C@H](Nc1ncnc2sc(-c3ccccc3)cc12)C1CCOCC1 | -10% | 1.75
FC(F)(F)COc1cccc(CNc2ncnc3sccc23)n1 | 4% | -0.82
COc1ccccc1NC(=O)c1ccc(Nc2nc3ccc(Cl)cc3o2)cc1 | 1% | -0.14
CC12CN(C(=O)Nc3cnn(CC(=O)NC4CC4)c3)CC1C1CCC2C1 (stereo not drawn) | 7% | -1.54
C[C@H]1CN(C2CCOCC2)CCN1S(=O)(=O)c1cnc2onc(-c3ccccc3)c2c1 | 1% | -0.29
Nc1nccc(N2CCC(N3CCN(c4ccccc4F)CC3)C(O)C2)n1 (stereo not drawn) | 7% | -1.42
CC(C)N1CCC[C@H](CNc2ncnc3[nH]ccc23)C1 | -5% | 0.73
C[C@H]1CCCCN1CCC1CCN(Cc2ccnc(N)c2)CC1 | 4% | -0.82
c1ccc2c(CN3CCC[C@H]3c3nc(-c4ccc(OC5CCCCC5)nc4)no3)c[nH]c2c1 | -13% | 1.98
CCN1CCC(CCNC2CCN(CC(F)F)CC2)CC1 | 10% | -2.05
Cc1nc(N2CCOCC2)ccc1N[C@H]1CCN(CC(F)(F)F)C1 | -4% | 0.61
Cn1nccc1-c1ccnc(N[C@H]2CCN(C(=O)OC(C)(C)C)C2)n1 | -11% | 2.46
CCCN(C(=O)CCc1nc(-c2ccco2)no1)C1CC(OCC)C12CCCCC2 (stereo not drawn) | -17% | 3.28
CCn1cc(-c2cc(C(=O)N(C)C[C@H]3CCCN3C)c3ccc(F)cc3n2)cn1 | -8% | 1.38
